For test [1], the target named is T1, GST-ATOH8 fusion protein (human) (UniProt Q96SQ7).
T1 sequence: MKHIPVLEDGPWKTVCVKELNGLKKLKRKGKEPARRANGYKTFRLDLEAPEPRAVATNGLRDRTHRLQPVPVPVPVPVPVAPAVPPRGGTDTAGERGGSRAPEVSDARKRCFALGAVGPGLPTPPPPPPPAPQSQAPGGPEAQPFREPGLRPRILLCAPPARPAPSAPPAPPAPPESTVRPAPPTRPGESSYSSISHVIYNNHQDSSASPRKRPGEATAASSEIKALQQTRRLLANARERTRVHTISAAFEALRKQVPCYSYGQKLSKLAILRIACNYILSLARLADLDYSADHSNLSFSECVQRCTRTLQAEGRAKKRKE
As to the kind of experiment: pull-down; GST fusion protein on glutathione beads as bait, incubated with lysate of Cos7 or HEK293T cells expressing the ECFP or EYFP fusion protein, 2-4 h at 4 °C; Western blot with EGFP antibody; only the target purified. In general terms: In western blotting, separated proteins are transferred to a membrane and probed.

For test [2], the target named is T2, ATOH8-ECFP fusion protein (human) (UniProt Q96SQ7).
T2 sequence: T1 sequence
As to the kind of experiment: co-IP; COS7 cells co-transfected; lysate (PBS, 1 % Triton, protease inhibitor, NaF, Na3VO4) on GFP-trap_A beads, 2 h at 4 °C; Western blot.

The target of test [3] is T3, ATOH8 (yeast-2-hybrid screen) (human) (UniProt Q96SQ7).
T3 sequence: T1 sequence
Kind of test: two-hybrid; yeast-2-hybrid screen, data not shown.

No constants are given. Whether binding was seen depends on the method and setting. For part of these data: Binding seen in cells or lysates may run through a third protein. Some binding calls cover weakened binding; strength is not graded here. For part of these data: Sequences can lack the tags named with a protein.

For “EYFP-PPP3CA (from UniProt Q08209-1 1-521)”, the binding result in test [1] was “no binding”. For the substance “constitutively active PPP3CB (P1-401), expressed in mammalian cells (from UniProt P16298-4 1-401) (domain or fragment)”, the binding entry in test [2] is given as “binds”. “PPP3CB (yeast-2-hybrid screen) (from UniProt P16298 1-524)”: the binding entry in test [3] was “binds”.

The values are drawn from publication PMC4710663.
